# Data as given in PMC4336329 (PLoS ONE, 2015).
# The campaign covered roughly 310,000 compounds. About 2,200 (0.71%) showed an effect of 50% or more. The effect is printed as a negative number. This is one part of the list.
# Biological target: human ether-à-go-go-related gene (hERG) potassium channel (human, UniProt Q12809)
# Experiment: primary screen, population patch clamp on CHO cells stably expressing hERG
# human ether-à-go-go-related gene (hERG) potassium channel, sequence (Q12809 whole entry, looked up): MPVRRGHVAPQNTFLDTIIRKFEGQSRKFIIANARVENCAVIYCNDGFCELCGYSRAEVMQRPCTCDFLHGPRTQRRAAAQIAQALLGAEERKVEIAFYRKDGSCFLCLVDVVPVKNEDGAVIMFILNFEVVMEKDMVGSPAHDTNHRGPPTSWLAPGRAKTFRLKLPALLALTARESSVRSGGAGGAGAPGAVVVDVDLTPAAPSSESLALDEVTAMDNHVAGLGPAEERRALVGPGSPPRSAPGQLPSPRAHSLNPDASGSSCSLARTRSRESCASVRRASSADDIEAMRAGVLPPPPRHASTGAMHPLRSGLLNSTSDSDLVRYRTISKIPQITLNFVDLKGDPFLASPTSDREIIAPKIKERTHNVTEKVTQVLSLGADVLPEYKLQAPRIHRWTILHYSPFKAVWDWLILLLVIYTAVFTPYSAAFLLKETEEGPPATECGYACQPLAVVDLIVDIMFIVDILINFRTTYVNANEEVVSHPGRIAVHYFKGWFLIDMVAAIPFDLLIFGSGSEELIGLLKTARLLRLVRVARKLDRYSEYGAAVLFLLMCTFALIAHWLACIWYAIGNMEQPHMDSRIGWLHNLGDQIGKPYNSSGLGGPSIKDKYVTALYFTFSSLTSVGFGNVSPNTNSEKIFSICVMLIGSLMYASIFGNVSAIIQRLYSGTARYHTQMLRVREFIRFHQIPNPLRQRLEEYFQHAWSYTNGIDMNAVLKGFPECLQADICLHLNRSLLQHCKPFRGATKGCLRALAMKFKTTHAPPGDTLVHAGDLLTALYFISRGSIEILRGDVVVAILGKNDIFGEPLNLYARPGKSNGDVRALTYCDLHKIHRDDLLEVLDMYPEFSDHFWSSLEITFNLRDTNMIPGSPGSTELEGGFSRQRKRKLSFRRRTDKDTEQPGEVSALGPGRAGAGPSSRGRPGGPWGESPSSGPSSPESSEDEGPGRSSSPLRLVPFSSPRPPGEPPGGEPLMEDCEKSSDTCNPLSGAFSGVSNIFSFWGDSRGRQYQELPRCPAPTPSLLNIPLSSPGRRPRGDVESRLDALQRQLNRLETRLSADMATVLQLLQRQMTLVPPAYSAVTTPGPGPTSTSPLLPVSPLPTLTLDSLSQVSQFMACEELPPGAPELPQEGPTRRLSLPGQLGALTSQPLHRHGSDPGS
row,SMILES,"hERG current change (%, negative = inhibition) at 1uM [%]"
1,O=C(NCCc1nc2ccc(Cl)cc2[nH]1)C1CCC(=O)N(Cc2cccc(F)c2)C1 (stereo not shown),5.73
2,O=S(=O)(Nc1cccc(C(F)(F)F)c1)c1cnc[nH]1,17.2
3,O=C(Nc1ccc2c(c1)OCO2)NC1CCN(Cc2ccccc2)CC1,-4.05
4,COc1ccc(CCNC(=O)C2CCCN2C(=O)NC2CCCCC2)cc1OC (stereo not shown),20
5,CCCCCCN=CC1=C(O)CC(C)(C)CC1=O,13.8
6,CC1(C)CC(=O)c2cc(C(=O)N3CCCC(C)(C)C3)c(=O)n(-c3ccccc3)c2C1,5.98
7,CCOC(=O)c1ccc(NC(=O)CN2C(=O)C(C)SC(C)C2=O)cc1 (stereo not shown),7.28
8,Cc1nc(SCC(=O)NC(=O)NC(C)(C)C)nc(C)c1C,8.07
9,CON(C)c1nc(OCCNC(=O)OCc2ccc(Cl)cc2C)nc(N(C)C)n1,-0.494
10,COc1cc2c(cc1OC)C(C(=O)NCCN1CCOCC1)C1c3ccccc3CCN1C2=O (stereo not shown),-0.202
11,Cc1ccc(O)c(C=Nc2cc(C)ccc2O)c1,6.4
12,COC(CNC(=O)CN1CCN(Cc2ccccc2F)C1=O)OC,15.4
13,CC(OC(=O)c1cc[n+]([O-])cc1)C(=O)Nc1ccc(Cl)cn1 (stereo not shown),12.6
14,Cc1ccc(C)c(N2CCN(c3ccc4cc(S(=O)(=O)N5CCCCC5)ccc4n3)CC2)c1,12.7
15,O=C1Nc2cc(Cl)c(Cl)cc2N(O)N1c1ccccc1Cl,13
16,CC(C)COC(=O)OCN1C(=O)CN(CCN2CC(=O)N(COC(=O)OCC(C)C)C(=O)C2)CC1=O,8.92
17,CO/N=C/C1C(=O)NN=C1c1ccccc1 (stereo not shown),7.92
18,COc1c(C)cc(C(=O)C2CCCN(C(=O)c3cccc(-n4cccn4)c3)C2)cc1C (stereo not shown),8.62
19,COc1ccc(C2=NOC(C)(c3nnc(-c4ccccc4)o3)C2)cc1 (stereo not shown),-11.2
20,CC(Oc1ccc(Br)cc1)C(=O)NCC(C)(C)N1CCOCC1 (stereo not shown),-10.9
21,COc1ccc(NC2CCCN(C(=O)CCCN3CCCCC3=O)C2)cc1 (stereo not shown),23.9
22,CC1=C(c2ccccc2)[N+](=O)C2(CCCCC2)N1[O-],17.8

row,SMILES,"hERG current change (%, negative = inhibition) at 1uM [%]"
1,O=C(C1CCN(c2nc3ccc(Br)cc3s2)CC1)N1CCC2(CC1)OCCO2,-1.69
2,COc1ccc(CN2CCN(C(=O)CN3C(=O)C4C5C=CC(C5)C4C3=O)CC2)c(OC)c1OC (stereo not shown),13.2
3,O=C(O)c1ccc(NC(=O)c2cn(-c3ccccc3)nc2-c2ccc(F)cc2)cc1,16.8
4,COc1ccccc1-n1cc(CN2CCN(C3CCCCC3)C(CCO)C2)cn1 (stereo not shown),0.98
5,COc1ccc(Nc2nnc(Cc3ccncc3)c3ccccc23)c(OC)c1,-66.6
6,Cc1cc(C)nc(NS(=O)(=O)c2ccc(NC(=O)Cn3c(=O)oc4ccccc43)cc2)n1,8.53
7,Cc1cc(C)cc(NC(=O)CSc2nccn2Cc2ccco2)c1,10.8
8,Cc1cc(C)cc(NC(=O)CCn2ccnc2C)c1,5.71
9,COc1cc2c(cc1OC)C(c1ccccc1F)OC(=O)C2 (stereo not shown),6.41
10,COc1ccccc1N1C(=O)c2cccnc2C1=O,7.72
11,CCOc1ccccc1-n1c(SCC(=O)N(C(C)C)C(C)C)nnc1-c1cccnc1,10.3
12,CC(C)N(Cc1ccccc1)C(=S)NCc1ccccc1,11.7
13,COc1ccc(C(C(=O)NC(C)(C)C)N(Cc2ccco2)C(=O)CCC(=O)Nc2cc(C)on2)cc1 (stereo not shown),4.56
14,O=c1oc(-c2ccc([N+](=O)[O-])cc2)nc2ccc(O)cc12,11.8
15,C/C(=C\C(=O)c1sccc1Cl)N(C)C,9.15
16,O=C(c1cccs1)N1CCC(N2CCN(c3ccccc3)CC2)CC1,-14.5
17,O=C(NCc1ccc(Cl)cc1)c1cc(S(=O)(=O)N2CCCCC2)c[nH]1,7.72
18,Oc1ccc[nH+]c1SCc1ccccc1.[Br-],9.06
19,COCCNC(=O)CN1C(=O)COc2ccc(S(=O)(=O)N3CC(C)CC(C)C3)cc21 (stereo not shown),7.36
20,c1ccc(C(c2nnnn2C2CCCCC2)N2CCc3ccccc3C2)nc1 (stereo not shown),7.86
21,O=C(CN1C(=O)/C(=C/c2ccc(F)cc2)SC1=S)N1CCN(CCc2ccccn2)CC1,-0.109
22,CCCOc1ccc(NC(=O)CC2C(=O)OCC3CCCCN32)cc1 (stereo not shown),3.8

row,SMILES,"hERG current change (%, negative = inhibition) at 1uM [%]"
1,COc1ccc(S(=O)(=O)N2CCCC(C(=O)Nc3ccc(OC)c(OC)c3)C2)cc1 (stereo not shown),9.16
2,O=C(CSc1nnc(NC(=O)c2ccco2)s1)Nc1ccc(F)cc1F,8.99
3,CCOc1ccc(C2NC(=O)NC(C)=C2C(=O)OC)cc1C (stereo not shown),2.95
4,CCNS(=O)(=O)c1ccc(C(=O)Nc2ccccc2)cc1,0.857
5,CS(=O)(=O)N(CC(=O)Nc1ccc(S(=O)(=O)N2CCOCC2)cc1)c1cccc(F)c1,1.71
6,Cc1ccccc1Nc1nc(N)nc(COC(=O)[C@@H](NC(=O)c2ccccc2Cl)C(C)C)n1,-3.84
7,CCC(Sc1n[nH]c(=O)[nH]c1=O)C(=O)OCc1ccccc1 (stereo not shown),15.8
8,Cc1ccn2c(=O)nc(SCC(=O)N3CCN(c4ccccc4)CC3)nc2c1,2.29
9,CN(C(=S)Nc1ccc(Oc2ccccc2)cc1)C1CCCCC1,2.93
10,Brc1ccc2[nH]c3nc(SCCN4CCOCC4)nnc3c2c1.Cl,9.2
11,CCn1cc(CNCc2ccc(OCC(O)CN(C)Cc3ccccc3)cc2)cn1 (stereo not shown),9.73
12,CCOc1ccc(Cl)cc1/C=N/NC(=O)c1ccccc1,0.476
13,O=C(Cn1cccc1C(=O)c1ccccc1)NCc1ccc(Cl)cc1,15.8
14,Cc1ccc2nc(C)cc(Nc3ccc([N+](=O)[O-])cc3)c2c1,15.3
15,COc1ccc(Cn2nnnc2C(c2cccs2)N2CCOCC2)cc1 (stereo not shown),4.19
16,COc1ccc(N(CC(=O)NCc2ccccc2)S(=O)(=O)c2c(C)nn(C)c2C)cc1,4.78
17,CC(NCC(=O)Nc1ccccc1C(=O)NC1CC1)c1ccc(F)cc1F (stereo not shown),1.42
18,CCS(=O)(=O)c1ccc(O)c(NC(=O)COc2ccccc2)c1,12.6
19,O=C(CSc1ccc(-c2ccc(Br)cc2)nn1)NCC1CCCO1 (stereo not shown),17.4
20,CCOC(=O)N1CCC(Nc2nc3ccccc3n3nnnc23)CC1,2.8
21,COc1ccc(NC(=O)CN(C)C(=O)CCCSc2nc3ccccc3[nH]2)cc1,3.64
22,c1ccc2c(c1)OCC(c1csc3ncnc(N4CCCCC4)c13)O2 (stereo not shown),15.7

row,SMILES,"hERG current change (%, negative = inhibition) at 1uM [%]"
1,Cc1ccc(S(=O)(=O)N(C)c2ccc(C(=O)N3CCC(C(N)=O)CC3)cc2)cc1,9.45
2,CN1CCN(S(=O)(=O)Cc2ccc(Cl)cc2)CC1,8.61
3,O=C1C2CC(O)CN2C(=S)N1Cc1ccccc1 (stereo not shown),15.3
4,CCCCCCC(=O)N1CCC(c2nc3c(nnn3Cc3ccccc3Cl)c(=O)[nH]2)CC1,4.48
5,COc1ccccc1NC(=O)/C(=C/c1cccs1)NC(=O)c1ccco1,0.923
6,COCCn1c(CN2CCN(c3ccccc3)CC2)nc2c1c(=O)n(C)c(=O)n2C,1.56
7,COc1ccc(S(=O)(=O)N2CCCC(C(=O)N3CCN(C)CC3)C2)cc1C (stereo not shown),5.91
8,CC(C)Cc1nc(Cl)c(C#N)c2c1CCCC2,12.9
9,CC(=O)Nc1ccc(NC(=O)CSc2ccccn2)cc1,7.33
10,CCOc1ccc(CNC(=O)CN2C(=O)CSc3ccc(S(=O)(=O)N4CCOCC4)cc32)cc1OC,7.03
11,S=C1NC2=C(C(c3ccc(Br)cc3)N1)N1CCC2CC1 (stereo not shown),4.77
12,Cc1cc(C)n2cc(CSc3nnnn3-c3ccccc3C)nc2n1,-9.4
13,COc1cscc1C(N)=O,12.4
14,N#Cc1ccccc1Cn1c(=O)n(C2CCCC2)c(=O)c2ccccc21,6.75
15,Cl.O=S1(=O)N=C(N(CCO)/N=C/c2ccncc2)c2ccccc21,7.58
16,O=C(CCN1C(=O)COc2ccccc21)NCc1cccs1,9.98
17,COc1cccc(/C=N/n2c(C3CCCCC3)n[nH]c2=S)c1,6.99
18,Cc1ccccc1CC1(CO)CCCN(Cc2cn[nH]c2-c2ccccc2)C1 (stereo not shown),7.9
19,CC(=O)Nc1ccc(S(=O)(=O)NNC(=O)COc2ccc(C(C)(C)C)cc2)cc1,10.2
20,O=C(Nc1ccc(Cl)c(Cl)c1)Nc1ccc(Br)cc1F,16.9
21,COC(=O)[C@H]1[C@H]2C[C@@H]3c4[nH]c5cc(OC)ccc5c4CCN3C[C@H]2C[C@@H](OC(=O)c2cc(OC)c(OC)c(OC)c2)[C@@H]1OC,4.3
22,COc1ccc(CC(=O)N/N=C/c2ccc(-c3ccc(F)cc3)o2)cc1OC,-2.77
